Data published in the supplement of paper PMC3334620.
Whole data set: some 33,000 sequences, median “E-score (-0.5 to 0.5)” near -0.054, cut for the highest 2% near 0.39. Some of the results follow.

biological target: Ylr278c (UniProt Q05854); assay: PBM E-score (8-mer binding enrichment) (E-score (-0.5 to 0.5)); higher = stronger / more preferred TF binding; most listed sequences are background and not binding sites; conditions: protein concentration: 200 nM; construct: GST-DNA-binding domain
Summary of the method: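 Full-length yeast transcription factors or their DNA-binding domains, GST-tagged and expressed with PURExpress, were applied at about 100-200 nM to universal all-10-mer Agilent arrays. These arrays had been made double-stranded by primer extension on fresh or once-stripped slides. Detection used fluorescent anti-GST, normalisation used masliner, and E-scores for ungapped eight-base words pooled with reverse complements came from the Universal PBM Analysis Suite.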

Row | Sequence | PBM E-score
1 | AGACAGGC | -0.0968
2 | AAGGTCCT | -0.24
3 | ATACACGA | -0.0636
4 | AATCGAGT | -0.111
5 | CATACATA | -0.214
6 | AATAACGA | -0.089
7 | CGATACCC | 0.0456
8 | AGTGTTCG | 0.1
9 | CCTTACGA | -0.147
10 | ATCTCTAA | 0.0439
11 | TCATAACA | -0.142
12 | ATTTATCC | 0.163
13 | TAAAATTA | 0.0965
14 | AGAACCCG | 0.11
15 | CACATAGA | -0.178
16 | ACAGATCA | 0.0369
17 | GGCGTGGA | -0.0849
18 | CACTCTCA | -0.292
19 | GAAATTAA | 0.0737
20 | AATCTAGC | -0.262
21 | GCATCAGC | -0.0105
22 | TAGCATCA | -0.126
23 | TCCCAAAA | -0.0528
24 | CTCCGTTC | 0.394

Row | Sequence | PBM E-score
25 | CACAGACC | 0.0943
26 | CAAGCAGG | 0.00606
27 | ACGGCCAA | 0.123
28 | CGTCTCGC | -0.114
29 | AGCAACTC | 0.0225
30 | AATCTGAA | -0.187
31 | AAGCAATT | -0.0901
32 | AGATGTGA | -0.00546
33 | TATGAAGA | -0.0327
34 | GCATTTTA | 0.0813
35 | CGTGTGAG | -0.0888
36 | CATCGACC | -0.0666
37 | GAATGATA | 0.102
38 | ACGGCACT | 0.226
39 | AAAACTCA | 0.0289
40 | CCGTCCTA | 0.0556
41 | ACAGCTAT | -0.277
42 | CAGTGACG | 0.0689
43 | GCTGTTAA | -0.139
44 | ACGCGTTG | -0.0402
45 | CTTACGCC | 0.153
46 | ATCGGGTA | 0.0546
47 | TACATCGA | -0.115
48 | CCAGTTCG | 0.0695

Row | Sequence | PBM E-score
49 | AGGAATCC | 0.0322
50 | GTACCAAC | -0.0251
51 | ATCGAAAC | 0.0377
52 | GCCTAAAA | -0.279
53 | CCTGCGCA | -0.0614
54 | CAGGCCCA | -0.238
55 | ACGCTGAC | -0.0402
56 | ATTTTATC | 0.0903
57 | AGAGGCCC | -0.102
58 | AGCGATTC | -0.0824
59 | GCCAACCC | 0.0474
60 | GAGGTTAA | -0.042
61 | ACTCCTTG | 0.0391
62 | ACGCTACC | -0.0748
63 | AAATACGA | -0.0435
64 | CCATAGTA | -0.119
65 | AGTGAACG | -0.133
66 | CTGCTACC | -0.197
67 | ATCGTGAC | -0.0519
68 | CAATTACC | 0.13
69 | ATTCTCGA | -0.171
70 | GCTTAGTA | -0.133
71 | ATCTAAAT | 0.0897
72 | CTTCGGTC | 0.151

Row | Sequence | PBM E-score
73 | CTTTCGCA | -0.167
74 | AACTAAAC | 0.0172
75 | CGCCGGAG | 0.459
76 | GCCATCGA | -0.0575
77 | CAGGAGGC | -0.0031
78 | CACGAGGC | -0.143
79 | CGGCAAAA | 0.188
80 | CGGTCGTA | 0.142
81 | GCAAAAGC | 0.00747
82 | GGGGTCCA | -0.0346
83 | ACGAGGCA | -0.241
84 | CAAGGTAG | -0.149
85 | GGAACTGA | 0.0499
86 | ACGGATAG | 0.103
87 | ACGGCCGA | 0.246
88 | CAGCGTCG | 0.075
89 | ATGTAAGG | 0.0178
90 | CCAGAGCC | -0.136
91 | CGCTTCTC | 0.168
92 | GACTAATA | -0.0781
93 | GATCTATA | -0.0165
94 | CTGGCCAC | -0.253
95 | ACCTGTCC | 0.0205
96 | CAAACCCG | 0.261

Row | Sequence | PBM E-score
97 | AGTTAGCC | -0.039
98 | TAGAAATA | -0.0866
99 | AGTGAACA | -0.181
100 | TGGTCGAA | -0.368
101 | GATTTGTA | -0.0321
102 | GTTGTTGA | -0.184
103 | CGCTTTAG | -0.025
104 | AGAATGCC | 0.049
105 | GAAATGAC | -0.0184
106 | AATTTTGC | 0.0144
107 | AAGCCCTG | -0.314
108 | AATATGCG | 0.11
109 | GCAGGACC | 0.0778
110 | CCACTATA | -0.182
111 | GTTTCCGA | 0.369
112 | CCCATTCG | -0.0777
113 | GCCGGAGC | 0.452
114 | CAGCATCG | -0.221
115 | AGGGATTC | -0.0988
116 | CGCTGGCA | -0.113
117 | CCATATGC | -0.00309
118 | CCTATTAG | -0.117
119 | CCCCATAA | 0.0806
120 | GCGCCATA | -0.117

Row | Sequence | PBM E-score
121 | AGTTTGCA | -0.147
122 | AAATGCAG | -0.192
123 | TCTTGCCA | -0.278
124 | TCAGGGAA | -0.178
125 | CGTCGTAA | -0.119
126 | CACAGATC | -0.0312
127 | AATGGGTC | 0.0223
128 | CCGATCCC | 0.268
129 | AAGATTGG | -0.161
130 | GGCACGAC | -0.059
131 | AAATTCTG | 0.0321
132 | CAACTTCC | 0.22
133 | ACCTAGTG | -0.16
134 | AGAGACTA | -0.0856
135 | CACAGCTC | -0.127
136 | CATGTGGG | -0.117
137 | AACGGTTC | -0.0646
138 | CACAGTGA | -0.284
139 | ACCTGTTC | 0.00857
140 | AAAGACAA | 0.0683
141 | CCGGCAAA | 0.36
142 | ACACCATC | -0.209
143 | AGCACAAT | -0.268
144 | GTAATAAA | 0.0333

Row | Sequence | PBM E-score
145 | GTCAGTTA | -0.119
146 | ACCGACGT | 0.106
147 | ATCTACTG | -0.131
148 | GCACGTTA | -0.196
149 | CCCAGGCG | -0.0805
150 | CTCTTCTC | -0.106
151 | CATTCACA | -0.25
152 | ACTTGCTC | -0.145
153 | ACCATAAT | -0.11
154 | CATGTTTA | -0.0727
155 | AAATGTTC | -0.0989
156 | CTTTGAGA | -0.0977
157 | ATTCCGCA | 0.356
158 | AACCCATG | -0.00975
159 | CCCCCTTC | -0.29
160 | CAACATTC | -0.0869
161 | TGCCACAA | -0.156
162 | CGTTACGC | -0.0714
163 | CTAAAAGC | 0.0641
164 | AGCGCTTC | 0.0609
165 | CAAAATGG | 0.131
166 | CCCGAACG | 0.236
167 | TAACGGAA | 0.312
168 | CACTTGGG | -0.116

Row | Sequence | PBM E-score
169 | ACCCGGGT | 0.33
170 | AAGAGCAT | -0.135
171 | ACATGGTG | -0.17
172 | ACGGGACC | 0.0315
173 | CTCGAGGA | -0.244
174 | ATGGCAAG | -0.115
175 | AGTATCAG | -0.116
176 | CTGATCCC | -0.134
177 | CTACATAG | -0.101
178 | AAGCTCAC | -0.11
179 | AGATGGCT | -0.123
180 | CCCCTCGG | 0.0865
181 | ACCACGAC | -0.162
182 | GCTTGCGA | -0.0301
183 | ATTCATTG | -0.113
184 | ATAAGTGA | -0.229
185 | AGCTGCCC | 0.0319
186 | AGCGTAGA | -0.0682
187 | AATCAGGA | -0.138
188 | GCCAATAC | -0.0493
189 | ATCACATG | -0.163
190 | ACAACGGA | 0.347
191 | GACCCGCC | 0.135
192 | ACTCGCCG | 0.28
